Source: the supplement of paper PMC10369915
The list shows a part of the results. No stated cut-off is given here; in the data, active = 3.2 or more and inactive = the rest. The signal is at background level for most entries.

What was measured:
Assay in all cases: enrichment score (SH2-bound / input frequency) (ratio); bacterial display of known human phosphotyrosine sites (pTyr-Var adds point mutants) read by sequencing; higher = stronger binding; tyrosines were phosphorylated by kinases first
Settings in all cases: peptide library: Human pTyr
SHP2 C-SH2 domain E139D = biological target: SHP2 C-SH2 domain E139D
[1] = biological target: SHP2 C-SH2 domain wild-type
SHP2 N-SH2 domain L43F = biological target: SHP2 N-SH2 domain L43F
SHP2 N-SH2 domain T42A = biological target: SHP2 N-SH2 domain T42A
SHP2 N-SH2 domain T52S = biological target: SHP2 N-SH2 domain T52S
[2] = biological target: SHP2 N-SH2 domain wild-type

Measured: enrichment score
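Further: displayed peptides selected on beads carrying the immobilized SH2 domain, with library peptides lacking any tyrosine serving as negative controls.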

TYIDPDTYEDPSLAV [EPHA6_HUMAN_612]
inactive: SHP2 C-SH2 domain E139D 1.02 | [1] 0.674 | SHP2 N-SH2 domain L43F 0.881 | SHP2 N-SH2 domain T42A 0.718 | SHP2 N-SH2 domain T52S 0.915 | [2] 0.817

EDDPEAAYTTRGGKI [EPHA3_HUMAN_779]
inactive: SHP2 C-SH2 domain E139D 0.787 | [1] 0.607 | SHP2 N-SH2 domain L43F 0.723 | SHP2 N-SH2 domain T42A 0.645 | SHP2 N-SH2 domain T52S 0.664 | [2] 0.689

SPLDSTFYRSLLEDD [ERBB2_HUMAN_1005]
inactive: SHP2 C-SH2 domain E139D 0.961 | [1] 0.829 | SHP2 N-SH2 domain L43F 0.929 | SHP2 N-SH2 domain T42A 0.87 | SHP2 N-SH2 domain T52S 0.943 | [2] 1.05

SIQGHNDYMCPATNQ [ESR1_HUMAN_219]
inactive: SHP2 C-SH2 domain E139D 1.07 | [1] 0.935 | SHP2 N-SH2 domain L43F 1.03 | SHP2 N-SH2 domain T42A 0.936 | SHP2 N-SH2 domain T52S 0.931 | [2] 1.2

TCSPQPEYVNQPDVR [ERBB2_HUMAN_1139]
inactive: SHP2 C-SH2 domain E139D 1.09 | [1] 1.02 | SHP2 N-SH2 domain L43F 0.939 | SHP2 N-SH2 domain T42A 1.13 | SHP2 N-SH2 domain T52S 1.3 | [2] 1.37

SSLEELGYEAMDVGS [ERBB3_HUMAN_1222_YA]
inactive: SHP2 C-SH2 domain E139D 0.921 | [1] 0.693 | SHP2 N-SH2 domain L43F 0.824 | SHP2 N-SH2 domain T42A 0.832 | SHP2 N-SH2 domain T52S 0.996 | [2] 0.757

VYGGIFLYPANKKSP [F16P1_HUMAN_265]
inactive: SHP2 C-SH2 domain E139D 1.98 | [1] 1.76 | SHP2 N-SH2 domain L43F 2.36 | SHP2 N-SH2 domain T42A 1.64 | SHP2 N-SH2 domain T52S 2.5 | [2] 2.5

KFDTQAPYGEKQDEF [ERP29_HUMAN_66_YA]
inactive: SHP2 C-SH2 domain E139D 1.13 | [1] 0.767 | SHP2 N-SH2 domain L43F 0.839 | SHP2 N-SH2 domain T42A 0.728 | SHP2 N-SH2 domain T52S 0.824 | [2] 0.95

GAVENPEYLTPQGGA [ERBB2_HUMAN_1196]
inactive: SHP2 C-SH2 domain E139D 0.727 | [1] 0.557 | SHP2 N-SH2 domain L43F 0.505 | SHP2 N-SH2 domain T42A 0.667 | SHP2 N-SH2 domain T52S 0.557 | [2] 0.575

GANRVVIYDPDWNPS [ERCC6_HUMAN_932]
inactive: SHP2 C-SH2 domain E139D 0.61 | [1] 0.679 | SHP2 N-SH2 domain L43F 0.664 | SHP2 N-SH2 domain T42A 0.53 | SHP2 N-SH2 domain T52S 0.743 | [2] 0.663

SIAIPSSYVDSHHEA [ESR2_HUMAN_36_YA]
inactive: SHP2 C-SH2 domain E139D 0.606 | [1] 0.543 | SHP2 N-SH2 domain L43F 0.638 | SHP2 N-SH2 domain T42A 0.635 | SHP2 N-SH2 domain T52S 0.771 | [2] 0.628

SKSATLLYDQPLQVF [ERBIN_HUMAN_920]
inactive: SHP2 C-SH2 domain E139D 0.502 | [1] 0.549 | SHP2 N-SH2 domain L43F 0.593 | SHP2 N-SH2 domain T42A 0.624 | SHP2 N-SH2 domain T52S 0.615 | [2] 0.573

VKKFKVEYHAGGSTQ [ADK_HUMAN_77]
inactive: SHP2 C-SH2 domain E139D 1.59 | [1] 1.25 | SHP2 N-SH2 domain L43F 1.53 | SHP2 N-SH2 domain T42A 1.48 | SHP2 N-SH2 domain T52S 1.89 | [2] 2.15

DSSKPAVYNAPEGAA [ESR1_HUMAN_52_YA]
inactive: SHP2 C-SH2 domain E139D 0.775 | [1] 0.681 | SHP2 N-SH2 domain L43F 1.24 | SHP2 N-SH2 domain T42A 0.672 | SHP2 N-SH2 domain T52S 0.758 | [2] 0.705

GGLSDGPYSNPAENS [EPOR_HUMAN_485_YA]
inactive: SHP2 C-SH2 domain E139D 0.648 | [1] 0.487 | SHP2 N-SH2 domain L43F 0.56 | SHP2 N-SH2 domain T42A 0.504 | SHP2 N-SH2 domain T52S 0.481 | [2] 0.552

FNIPPPIYTSRARID [ERBB4_HUMAN_1035]
inactive: SHP2 C-SH2 domain E139D 0.765 | [1] 0.73 | SHP2 N-SH2 domain L43F 0.751 | SHP2 N-SH2 domain T42A 0.715 | SHP2 N-SH2 domain T52S 1.12 | [2] 0.912

SAPAGARYVGSMVAD [F16P1_HUMAN_245_YA]
inactive: SHP2 C-SH2 domain E139D 0.61 | [1] 0.513 | SHP2 N-SH2 domain L43F 0.461 | SHP2 N-SH2 domain T42A 0.562 | SHP2 N-SH2 domain T52S 0.477 | [2] 0.528

ARPLVEFYEEIKKAE [ADRBK1_HUMAN_86_YA]
inactive: SHP2 C-SH2 domain E139D 0.881 | [1] 1.11 | SHP2 N-SH2 domain L43F 0.866 | SHP2 N-SH2 domain T42A 1.21 | SHP2 N-SH2 domain T52S 1.78 | [2] 1.91

GGLSDGPYSNPYENS [EPOR_HUMAN_485]
inactive: SHP2 C-SH2 domain E139D 0.511 | [1] 0.494 | SHP2 N-SH2 domain L43F 0.786 | SHP2 N-SH2 domain T42A 0.453 | SHP2 N-SH2 domain T52S 0.618 | [2] 0.524

NFANFSAYPSEEDMI [EPS15_HUMAN_849]
inactive: SHP2 C-SH2 domain E139D 0.878 | [1] 0.826 | SHP2 N-SH2 domain L43F 0.915 | SHP2 N-SH2 domain T42A 0.772 | SHP2 N-SH2 domain T52S 0.77 | [2] 0.752

TYVDPFTYEDPNQAV [EPHA4_HUMAN_602]
inactive: SHP2 C-SH2 domain E139D 0.605 | [1] 0.609 | SHP2 N-SH2 domain L43F 0.537 | SHP2 N-SH2 domain T42A 0.694 | SHP2 N-SH2 domain T52S 0.828 | [2] 0.644

EAVNEPLYLNTFANT [ERBB4_HUMAN_1208_YA]
inactive: SHP2 C-SH2 domain E139D 0.579 | [1] 0.454 | SHP2 N-SH2 domain L43F 0.545 | SHP2 N-SH2 domain T42A 0.588 | SHP2 N-SH2 domain T52S 0.55 | [2] 0.487

EDDPEAVYTTTGGKI [EPHA7_HUMAN_791]
inactive: SHP2 C-SH2 domain E139D 1.05 | [1] 0.777 | SHP2 N-SH2 domain L43F 0.741 | SHP2 N-SH2 domain T42A 0.889 | SHP2 N-SH2 domain T52S 0.949 | [2] 0.781

NTLGKAEYLKNNILS [ERBB4_HUMAN_1221]
inactive: SHP2 C-SH2 domain E139D 0.765 | [1] 0.896 | SHP2 N-SH2 domain L43F 0.806 | SHP2 N-SH2 domain T42A 0.825 | SHP2 N-SH2 domain T52S 0.965 | [2] 1.05

DPSPLQRYSEDPTVP [ERBB2_HUMAN_1112]
inactive: SHP2 C-SH2 domain E139D 0.611 | [1] 0.548 | SHP2 N-SH2 domain L43F 0.665 | SHP2 N-SH2 domain T42A 0.721 | SHP2 N-SH2 domain T52S 0.758 | [2] 0.741

FYAEPHTYEEPGRAG [EPHA8_HUMAN_616]
inactive: SHP2 C-SH2 domain E139D 0.52 | [1] 0.62 | SHP2 N-SH2 domain L43F 0.769 | SHP2 N-SH2 domain T42A 0.452 | SHP2 N-SH2 domain T52S 0.466 | [2] 0.411

TAIDPETYEDPNRAV [EPHA7_HUMAN_614_YA]
inactive: SHP2 C-SH2 domain E139D 0.766 | [1] 0.787 | SHP2 N-SH2 domain L43F 0.76 | SHP2 N-SH2 domain T42A 0.732 | SHP2 N-SH2 domain T52S 0.944 | [2] 0.926

IAIDPFTYEDPNEAV [EPHB1_HUMAN_600_YA]
inactive: SHP2 C-SH2 domain E139D 1.08 | [1] 0.894 | SHP2 N-SH2 domain L43F 1.32 | SHP2 N-SH2 domain T42A 1.01 | SHP2 N-SH2 domain T52S 1.14 | [2] 1.74

VYIDPFTYEDPNEAV [EPHB3_HUMAN_614]
inactive: SHP2 C-SH2 domain E139D 1.07 | [1] 0.929 | SHP2 N-SH2 domain L43F 1.15 | SHP2 N-SH2 domain T42A 1.27 | SHP2 N-SH2 domain T52S 1 | [2] 0.9

EAIKMGRYTEIFMEN [EPHA5_HUMAN_982]
inactive: SHP2 C-SH2 domain E139D 0.999 | [1] 1.2 | SHP2 N-SH2 domain L43F 1.55 | SHP2 N-SH2 domain T42A 2.4 | SHP2 N-SH2 domain T52S 1.06 | [2] 0.984

IVAENPEYLSEFSLK [ERBB4_HUMAN_1284]
inactive: SHP2 C-SH2 domain E139D 0.798 | [1] 0.698 | SHP2 N-SH2 domain L43F 0.61 | SHP2 N-SH2 domain T42A 0.608 | SHP2 N-SH2 domain T52S 0.65 | [2] 0.729

KFPGTKTYIDPETAE [EPHA7_HUMAN_608_YA]
inactive: SHP2 C-SH2 domain E139D 0.923 | [1] 0.751 | SHP2 N-SH2 domain L43F 0.828 | SHP2 N-SH2 domain T42A 0.96 | SHP2 N-SH2 domain T52S 1.01 | [2] 0.981

SSDEEAIYMNKVTIN [AF1L2_HUMAN_56_YA]
inactive: SHP2 C-SH2 domain E139D 0.855 | [1] 0.586 | SHP2 N-SH2 domain L43F 1.01 | SHP2 N-SH2 domain T42A 0.626 | SHP2 N-SH2 domain T52S 0.736 | [2] 0.651

DPSPDHLYSFRILHK [AF1L2_HUMAN_413]
inactive: SHP2 C-SH2 domain E139D 0.795 | [1] 0.791 | SHP2 N-SH2 domain L43F 0.819 | SHP2 N-SH2 domain T42A 0.75 | SHP2 N-SH2 domain T52S 0.75 | [2] 0.79

DLVDAEEYLVPQQGF [ERBB2_HUMAN_1023]
inactive: SHP2 C-SH2 domain E139D 0.802 | [1] 0.699 | SHP2 N-SH2 domain L43F 0.684 | SHP2 N-SH2 domain T42A 0.899 | SHP2 N-SH2 domain T52S 0.805 | [2] 0.728

DGPASNPYENSLIPA [EPOR_HUMAN_489_YA]
inactive: SHP2 C-SH2 domain E139D 0.508 | [1] 0.457 | SHP2 N-SH2 domain L43F 0.608 | SHP2 N-SH2 domain T42A 0.49 | SHP2 N-SH2 domain T52S 0.533 | [2] 0.619
